Experimental data: the supplement of paper PMC11876631
± gives the standard deviation of the averaged measurements. Laboratory Escherichia coli strains with one amino-acid change in an essential protein, pooled on minimal glucose agar with carbenicillin or gentamicin at twice the control MIC (plus kanamycin and chloramphenicol for the plasmids), 48 h. Fold change of barcode share against drug-free plates; higher = less susceptible. Active = above 20 in both replicates (the paper's putatively resistant). '<' = one read or none on drug, '>' = one read or none on a drug-free plate. Shares are relative, so most strains fall below 1 when a few take over. Listed are strains with at least 15 reads on both drug-free plates, and hits; most hits rest on fewer reference reads. Replicate rank correlation about 0.5. Edits are read from barcodes.

B1: leuB; numbered along this chain (parent)
chain: MSKNYHIAVLPGDGIGPEVMTQALKVLDAVRNRFAMRITTSHYDVGGAAIDNHGQPLPPATVEGCEQADAVLFGSVGGPKWEHLPPDQQPERGALLPLRKHFKLFSNLRPAKLYQGLEAFCPLRADIAANGFDILCVRELTGGIYFGQPKGREGSGQYEKAFDTEVYHRFEIERIARIAFESARKRRHKVTSIDKANVLQSSILWREIVNEIATEYPDVELAHMYIDNATMQLIKDPSQFDVLLCSNLFGDILSDECAMITGSMGMLPSASLNEQGFGLYEPAGGSAPDIAGKNIANPIAQILSLALLLRYSLDADDAACAIERAINRALEEGIRTGDLARGAAAVSTDEMGDIIARYVAEGV
B2: purM; numbered along this chain (parent)
chain: MTDKTSLSYKDAGVDIDAGNALVGRIKGVVKKTRRPEVMGGLGGFGALCALPQKYREPVLVSGTDGVGTKLRLAMDLKRHDTIGIDLVAMCVNDLVVQGAEPLFFLDYYATGKLDVDTASAVISGIAEGCLQSGCSLVGGETAEMPGMYHGEDYDVAGFCVGVVEKSEIIDGSKVSDGDVLIALGSSGPHSNGYSLVRKILEVSGCDPQTTELDGKPLADHLLAPTRIYVKSVLELIEKVDVHAIAHLTGGGFWENIPRVLPDNTQAVIDESSWQWPEVFNWLQTAGNVEHHEMYRTFNCGVGMIIALPAPEVDKALALLNANGENAWKIGIIKASDSEQRVVIE
B3: lgt; numbered along this chain (parent)
chain: MTSSYLHFPEFDPVIFSIGPVALHWYGLMYLVGFIFAMWLATRRANRPGSGWTKNEVENLLYAGFLGVFLGGRIGYVLFYNFPQFMADPLYLFRVWDGGMSFHGGLIGVIVVMIIFARRTKRSFFQVSDFIAPLIPFGLGAGRLGNFINGELWGRVDPNFPFAMLFPGSRTEDILLLQTNPQWQSIFDTYGVLPRHPSQLYELLLEGVVLFIILNLYIRKPRPMGAVSGLFLIGYGAFRIIVEFFRQPDAQFTGAWVQYISMGQILSIPMIVAGVIMMVWAYRRSPQQHVS
B4: fmt; numbered along this chain (parent)
chain: MSESLRIIFAGTPDFAARHLDALLSSGHNVVGVFTQPDRPAGRGKKLMPSPVKVLAEEKGLPVFQPVSLRPQENQQLVAELQADVMVVVAYGLILPKAVLEMPRLGCINVHGSLLPRWRGAAPIQRSLWAGDAETGVTIMQMDVGLDTGDMLYKLSCPITAEDTSGTLYDKLAELGPQGLITTLKQLADGTAKPEVQDETLVTYAEKLSKEEARIDWSLSAAQLERCIRAFNPWPMSWLEIEGQPVKVWKASVIDTATNAAPGTILEANKQGIQVATGDGILNLLSLQPAGKKAMSAQDLLNSRREWFVPGNRLV

Variants of: B1
Assay: barcode share on antibiotic plates over drug-free plates; higher = less susceptible
Details: with Escherichia coli (laboratory strain); antibiotic: carbenicillin; 2× MIC (3.1 µg/mL)
Protocol: (§1)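 A pool of E. coli strains, each edited to carry one amino-acid change in an essential protein, was grown for 48 h on minimal glucose agar with or without antibiotic; strain barcodes were sequenced; mean of two replicates.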

Row | Variant | fold change of barcode share
1 | L10A | 0.527 ± 0.024
2 | L10P | 23.6 ± 11
3 | W205Q | 0.526 ± 0.29
4 | W205A | 0.712 ± 0.19
5 | I134W | 0.61 ± 0.051
6 | L72W | 0.397 ± 0.085
7 | L72Q | 0.764 ± 0.31

Same assay, conditions: with Escherichia coli (laboratory strain); antibiotic: gentamicin; 2× MIC (MIC 0.45 µg/mL)

Row | Variant | fold change of barcode share
8 | L10A | 0.00703 ± 0.00016
9 | W205Q | 0.0139 ± 0.0095
10 | I134W | 0.0162 ± 0.0069
11 | L72W | 0.0159 ± 0.01
12 | L72Q | 0.0246 ± 0.0085

Variants of: B2
Assay: as above
Details: with Escherichia coli (laboratory strain); antibiotic: gentamicin; 2× MIC (MIC 0.45 µg/mL)
Protocol: as §1

Row | Variant | fold change of barcode share
13 | I306A | < 0.0128
14 | M304Q | < 0.0149
15 | M304A | < 0.0128
16 | M304W | 0.025 ± 0.009
17 | L320A | < 0.00776
18 | I305A | 0.0121 ± 0.012
19 | I123A | < 0.00816
20 | I126A | 0.00894 ± 0.0034
21 | I126Q | 0.0563 ± 0.066

Same assay, conditions: with Escherichia coli (laboratory strain); antibiotic: carbenicillin; 2× MIC (3.1 µg/mL)

Row | Variant | fold change of barcode share
22 | I306W | 44.8 [active]
23 | I306Q | 60 [active]
24 | M304Q | 0.304 ± 0.022
25 | M304A | 0.432 ± 0.2
26 | L320A | 0.23 ± 0.1
27 | L320W | > 52 [active]
28 | I305W | 38.9 [active]
29 | I305P | > 22.9 [active]
30 | I305A | 0.373 ± 0.064
31 | I123D | > 71.3 [active]
32 | I123Q | > 38.8 [active]
33 | I123A | 0.761 ± 0.083
34 | I123W | > 32.6 [active]
35 | F105Q | > 110 [active]
36 | F105D | > 53.2 [active]
37 | F105A | 79.5 [active]
38 | F105W | 1.68 ± 0.4
39 | I126P | > 39.9 [active]
40 | I126A | 1 ± 0.18
41 | I126Q | 1.45 ± 0.28
42 | I126D | > 31.3 [active]
43 | I126W | > 27.3 [active]

Variants of: B3
Assay: as above
Details: with Escherichia coli (laboratory strain); antibiotic: carbenicillin; 2× MIC (3.1 µg/mL)
Protocol: as §1

Row | Variant | fold change of barcode share
44 | V57W | 1.3 ± 0.4
45 | V57P | 0.683 ± 0.42
46 | V57A | 0.384 ± 0.13
47 | V57Q | 0.298 ± 0.15
48 | L214D | 0.193 ± 0.075
49 | L214Q | 0.23 ± 0.16
50 | L214A | 0.156 ± 0.0057
51 | I213D | 0.367 ± 0.23
52 | I213W | 0.318 ± 0.19
53 | L210D | 0.345 ± 0.035
54 | L210Q | 0.191 ± 0.23
55 | L31A | 0.264 ± 0.12
56 | L31W | 0.888 ± 1
57 | L31D | 0.475 ± 0.025
58 | F69Q | 0.225 ± 0.059
59 | F69D | 0.23 ± 0.071
60 | F69A | 1.06 ± 0.24
61 | V127W | 0.533 ± 0.28
62 | V127Q | 0.245 ± 0.17
63 | V127P | 0.205 ± 0.12

Same assay, conditions: with Escherichia coli (laboratory strain); antibiotic: gentamicin; 2× MIC (MIC 0.45 µg/mL)

Row | Variant | fold change of barcode share
64 | V57P | 0.00436 ± 0.0018
65 | V57A | 0.00753 ± 0.0042
66 | V57Q | 0.0073 ± 0.0054
67 | L214D | < 0.00627
68 | L214Q | < 0.0163
69 | L214A | < 0.0062
70 | I213A | < 0.018
71 | I213W | < 0.0121
72 | L31A | < 0.00475
73 | L31W | 0.013 ± 0.0032
74 | F69W | < 0.0165
75 | F69Q | < 0.0107
76 | F69A | < 0.00533
77 | V127W | < 0.0137
78 | V127A | < 0.0147
79 | V127Q | < 0.00989
80 | V127P | 0.0235 ± 0.015

Variants of: B4
Assay: as above
Details: with Escherichia coli (laboratory strain); antibiotic: gentamicin; 2× MIC (MIC 0.45 µg/mL)
Protocol: as §1

Row | Variant | fold change of barcode share
81 | L172A | < 0.0077
82 | I8Q | < 0.00463
83 | I8W | < 0.00381
84 | I8A | 0.0108 ± 0.011
85 | I228P | < 0.00855
86 | I228W | < 0.0035
87 | I228D | < 0.0142
88 | I228Q | < 0.00477
89 | I228A | < 0.00788
90 | F34P | < 0.0129
91 | F34D | < 0.0143
92 | F34A | < 0.0044
93 | F34W | < 0.00288
94 | F34Q | < 0.00357

Same assay, conditions: with Escherichia coli (laboratory strain); antibiotic: carbenicillin; 2× MIC (3.1 µg/mL)

Row | Variant | fold change of barcode share
95 | L282W | 0.246 ± 0.032
96 | I8Q | 0.269 ± 0.013
97 | I8W | 0.295 ± 0.054
98 | I8A | 0.271 ± 0.013
99 | I228P | 0.208 ± 0.0022
100 | I228W | 0.293 ± 0.034
101 | I228D | 0.229 ± 0.0056
102 | I228Q | 0.525 ± 0.48
103 | I228A | 0.558 ± 0.4
104 | F34D | 0.455 ± 0.15
105 | F34A | 0.307 ± 0.0044
106 | F34W | 0.284 ± 0.031
107 | F34Q | 0.251 ± 0.022
